Measured values: patent US12653899B2, “Multi-targeted, tunable, sustained delivery of payloads to charged avascular tissues” (Massachusetts Institute of Technology, priority 2019, dated 2026)

Test system: bovine cartilage explants
Assay: Quantitative uptake of GFPs into bovine cartilage explants (uptake ratio, absorption bath fluorescence)
Assay type: in vitro ADME
Details: experimental, 24 hr, 1 μM in PBS+1% BSA
Description: Cartilage tissue was harvested from the femoropatellar grooves of 11 knee joints from 11 different freshly slaughtered 1-2 week old bovine calves (Research 87, Boylston MA) as previously described. Cylindrical cartilage disks (3 mm in diameter) that included the intact superficial zone were cut out and washed with Dulbecco's phosphate buffered saline without calcium and magnesium (PBS). […]
Experiments to quantify the uptake of GFPs into cartilage were started after the explants had been pre-equilibrated in culture medium for 48 h post-harvest. […] (Standard 96-well cell culture plates were not used because S-GFPs could stick to polystyrene even in the presence of BSA, leading to a loss of protein. In contrast, use of polypropylene with 1% BSA enabled complete recovery of fluorescence). […] At the same time, the fluorescence of the absorption bath was measured using a plate reader (Synergy H1, Biotek Instruments Inc.) (excitation: 485 nm, emission: 528 nm). […] At the end of the desorption in 10×PBS+1% BSA, cartilage explants were weighed and the fluorescence of the desorption bath was measured. This fluorescence measurement was used with a standard curve and the explant wet weights to calculate the concentration of GFP inside cartilage explants (mol/mg wet weight). […]

B1: Janus GFP: neutral GFP variant with enhanced uptake; likely the net neutral GFP with more than 40% continuous surface positive charge, SEQ ID NO: 5 (protein)
chain: MGHHHHHHGSACELMVSKGEELFEGDVPILVELDGDVNGHEFSVRGEGEGDATKGELTLKFICTTGELPVPWPTLVTTLTYGVQCFSRYPKHMKQHDFFKSAMPEGYVQERTISFKDDGTYKTRAEVKFEGDTLVNRIELKGKDFKEKGNILGHKLEYNFNSHRVYITADKRKNGIKAEFKIRHNVKDGSVQLADHYQQNTPIGRGPVLLPRRHYLSTRSALSKDPKEERDHMVLLEFVTAAGIDHGMDELYK
B1 gave an Uptake ratio of 10.1±1.3.
